{
  "source": "PubChem BioAssay AID1479",
  "about": "(National Center for Advancing Translational Sciences (NCATS), 2009)",
  "note": "Out of some 280,000 compounds screened, about 820 (0.29%) were called active. This list was built around the results that the source calls inconclusive (neither active nor inactive); the mix of calls is not that of the screen. The call rests on the fitted dose curve; in most records, active means well fitted curve in either direction with a large enough effect; inconclusive means small, poorly fitted or top-dose-only effect; inactive means flat fitted curve, though single readings scatter. Potencies of inconclusive entries are left out as doubtful fits. On the % scale 0 is the no-effect control and ±100 the full control effect; potency means the concentration at half of the fitted maximal effect; tags describe the fitted curve by direction and shape or compound fluorescence and quenching.",
  "data": [
    {"assay": "Total Fluorescence Counterscreen for Inhibitors of the Interaction of Thyroid Hormone Receptor and Steroid Receptor Coregulator 2", "settings": "TRb/SRC2 Texas Red total fluorescence interference; series mostly up to 106 µM", "outline": "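Flags fluorescent or light-absorbing compounds by total fluorescence, S + 2P, at 555 nm excitation and 632 nm emission. Mixture: 20 nM Texas Red SRC2 peptide, 0.6 uM human TRb LBD, 1 uM T3, 5% DMSO; compound exposure 5 h at ambient temperature.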", "values": [
      {"molecule": "CCOC(=O)c1ccc(NC(=O)CSc2nnc(-c3ccncc3)n2-c2ccccc2)cc1", "Potency": "inactive"},
      {"molecule": "O=C(Nc1cccc(C(F)(F)F)c1)c1cccnc1NCCc1ccccc1", "Potency": "inactive"},
      {"molecule": "Cc1ncc([N+](=O)[O-])n1CCOC(=O)NC(NCc1ccccc1Cl)C(Cl)(Cl)Cl", "note": "(centres undefined)", "Potency": "inconclusive [falling, full curve, poor fit]"},
      {"molecule": "Cc1ccc2[nH]c(=O)c3cc(C(=O)N(CCCOC(C)C)Cc4ccco4)sc3c2c1", "Potency": "inconclusive [falling, full curve, poor fit]"},
      {"molecule": "O=C(NCc1cccc(Cl)c1)c1ccco1", "Potency": "inactive"},
      {"molecule": "CCOc1ccc(CCNC(=O)c2cc3c(=O)n(C)c4ccccc4c3n2C)cc1OCC", "Potency": "inconclusive [falling, full curve, poor fit]"},
      {"molecule": "Cc1cc(NC(=O)CSCC(=O)N(c2ccc(F)cc2)C(C(=O)NC2CCCCC2)c2ccc(O)c(O)c2)no1", "note": "(centres undefined)", "Potency": "inactive"},
      {"molecule": "COC(=O)c1ccc(NS(=O)(=O)c2ccc3[nH]c4c(c3c2)CCCC4)cc1", "Potency": "active: 28.2 µM [quencher]"},
      {"molecule": "CCOC(=O)c1c(NC(=O)CCCOc2ccc(C(C)(C)C)cc2)sc2c1CCCC2", "Potency": "inconclusive [falling, full curve, poor fit]"},
      {"molecule": "Cc1ccc(NC(=O)C(Cc2ccccc2)NS(=O)(=O)c2ccc3c(c2)CCC(=O)N3)cc1", "note": "(centres undefined)", "Potency": "inconclusive [quencher, full curve]"},
      {"molecule": "O=c1cc(-c2cc(O)c(O)c(O)c2)oc2cc(O)cc(O)c12", "Potency": "inactive"},
      {"molecule": "CN(CC(O)CON=C1c2ccccc2-c2ccccc21)S(=O)(=O)c1ccc(Br)cc1", "note": "(centres undefined)", "Potency": "inconclusive [quencher, partial curve]"},
      {"molecule": "O=C1C2=CC[C@H]3C(=O)N(Cc4ccc5c(c4)OCO5)C(=O)[C@@H]3[C@@H]2[C@H](O)[C@@H]2O[C@H]12", "fluorescence change, negative = quenching": "inactive: -4% [at 11.2 µM]"},
      {"molecule": "COc1ccc(NC(=O)c2cc3cccc(OC)c3oc2=Nc2ccc(C(=O)O)cc2)cc1OC", "Potency": "inactive"},
      {"molecule": "O=C(Nc1nc(-c2ccc(Br)cc2)ns1)c1ccccc1F", "Potency": "inconclusive [falling, partial curve, poor fit]"},
      {"molecule": "CCOc1cc(NC(C)=O)ccc1C(=O)OC", "Potency": "inactive"},
      {"molecule": "CCCc1nn2c(=O)cc(COC(=O)c3cccs3)nc2s1", "Potency": "inconclusive [falling, full curve, poor fit]"},
      {"molecule": "COCCCNC(=O)Cn1cc(/C=C(\\C#N)C(=O)N2CCN(c3ccccc3)CC2)c2ccccc21", "Potency": "inconclusive [falling, partial curve, poor fit]"},
      {"molecule": "CC1CC=CC2C1C(=O)N(Cc1ccccc1)C2c1ccc(/C=C/c2ccccc2)cc1F", "note": "(centres undefined)", "Potency": "inactive"},
      {"molecule": "C=CCNC(=O)/C(C#N)=C/c1c(N(Cc2ccccc2)Cc2ccccc2)nc2ccccn2c1=O", "Potency": "inconclusive [falling, partial curve, poor fit]"},
      {"molecule": "COc1cc2c(cc1OC)C1C(=O)c3c(O)cc4c(c3OC1CO2)C=CC(C)(C)O4", "note": "(centres undefined)", "Potency": "inactive"},
      {"molecule": "CCC1(C)Cc2sc3c(=O)[nH]c(=S)[nH]c3c2CO1", "note": "(centres undefined)", "Potency": "inactive"},
      {"molecule": "COc1cccc2cc(-c3csc(-c4ccc(Cl)cc4)n3)c(=O)oc12", "Potency": "inconclusive [falling, partial curve, poor fit]"},
      {"molecule": "CCN(CC)S(=O)(=O)c1ccc(/C=C/C(=O)Nc2cccc(F)c2)cc1", "Potency": "inactive"},
      {"molecule": "Cc1ccc(C(=O)NC(=S)Nc2ccc3[nH]c(=O)[nH]c3c2)cc1", "Potency": "inconclusive [quencher, full curve]"},
      {"molecule": "CCn1c(=O)c(=O)[nH]c2cc(C(=O)NC3CCCc4ccccc43)ccc21", "note": "(centres undefined)", "Potency": "active: 39.8 µM [fluorescent]"},
      {"molecule": "Cc1c(C(=O)N(Cc2ccc(N(C)C)cc2)Cc2ccco2)oc2cc(Br)ccc12", "Potency": "inactive"},
      {"molecule": "C/C(=N\\NC(=O)CNC(=O)C(c1ccccc1)c1ccccc1)c1ccc(C(C)(C)C)cc1", "Potency": "inconclusive [falling, full curve, poor fit]"},
      {"molecule": "COc1ccccc1NC(=O)CCn1cnc2onc(-c3ccc(F)cc3)c2c1=O", "Potency": "inactive"},
      {"molecule": "CC1(C)CC(=O)c2cc(-c3nc(-c4ccc(Cl)cc4)cs3)c(=O)n(-c3cccc(F)c3)c2C1", "Potency": "inconclusive [falling, full curve, poor fit]"},
      {"molecule": "CN(C)c1ccc(/C=C/c2cc[n+](C)cc2)cc1", "Potency": "active: 44.7 µM [fluorescent]"},
      {"molecule": "O=C1c2ccccc2-c2onc3ccc(NCc4ccco4)c1c23", "Potency": "active: 44.7 µM [fluorescent]"},
      {"molecule": "CCCCn1cc(S(=O)(=O)c2ccc(CC)cc2)c(=O)c2cc(F)c(N3CCOCC3)cc21", "Potency": "inconclusive [quencher, full curve]"},
      {"molecule": "CCCOc1ccc(C(=O)O/N=C(\\CC)c2ccc(C)cc2)cc1", "Potency": "inconclusive [falling, full curve, poor fit]"},
      {"molecule": "Cc1cn2c(N)c(/C=C3\\C=Nc4ccccc43)c(=O)nc2s1", "Potency": "inconclusive [rising, single point]"},
      {"molecule": "CCc1ccc(S(=O)(=O)Nc2cc3c(cc2N2CCOCC2)n(C)c(=O)c(=O)n3C)cc1", "Potency": "inconclusive [falling, partial curve, poor fit]"},
      {"molecule": "Cc1ccc(C(=O)N2CCc3cc(CNC(=O)CCc4ccccc4)ccc32)cc1", "Potency": "inconclusive [falling, full curve, poor fit]"},
      {"molecule": "Brc1ccccc1-c1nnc2sc(-c3ccc4c(c3)OCCO4)nn12", "Potency": "inactive"},
      {"molecule": "Cc1ccc(S(=O)(=O)NN2C(=O)c3ccccc3NC2c2ccco2)cc1", "note": "(centres undefined)", "Potency": "inactive"},
      {"molecule": "CCN(CCNC(=O)c1ccc(CSc2nc3ccncc3[nH]2)cc1)c1ccccc1", "Potency": "inactive"},
      {"molecule": "O=C(CSc1nc2ccccc2n1CCc1ccccc1)c1ccc(O)c(O)c1", "Potency": "inconclusive [quencher, partial curve]"},
      {"molecule": "COC(=O)COc1ccc(S(=O)(=O)NCCC2=CCCCC2)cc1C", "Potency": "inactive"},
      {"molecule": "CCCn1c(CCC(=O)O)nc2cc(S(=O)(=O)N3CCCC3)ccc21", "Potency": "inconclusive [fluorescent, partial curve]"},
      {"molecule": "CCCn1nc([N+](=O)[O-])c(C(C#N)c2nc3ccccc3s2)c(Cl)c1=O", "note": "(centres undefined)", "Potency": "inconclusive [quencher, partial curve]"}
    ]}
  ]
}
